Assay results from PubChem BioAssay AID504832 (National Center for Advancing Translational Sciences (NCATS), 2011).
Out of some 310,000 compounds screened, about 18,000 (5.8%) were called active. Inconclusive results, whose numbers are uncertain, are shown with a selection of clear calls. Calls follow the shape of the dose curve; as a rule, active = well fitted inhibition curve with a large enough effect; inconclusive = small, poorly fitted or top-dose-only effect, or another doubt; inactive = no such curve, though single readings can be large or run the other way. Potencies of inconclusive entries are left out as doubtful fits.

Experiment: Primary qHTS for delayed death inhibitors of the malarial parasite plastid, 48 hour incubation
Details: P. falciparum luciferase growth in erythrocytes; series mostly up to 28.7 µM; activity change, negative = inhibition: at the top concentration
How it was run: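 Read-out is firefly luciferase luminescence from an integrated reporter in P. falciparum, so falling signal marks reduced parasite growth. Infected erythrocytes were at 2% hematocrit and 0.1% parasitemia (final) in Albumax-supplemented RPMI 1640.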
% is scaled to controls: 0 for no effect and ±100 for the full control effect; potency is read from the fitted curve at half-maximal effect; tags tell the direction and shape of the fitted curve.

SMILES | activity change, negative = inhibition | Potency
Cc1[nH]c2ccccc2c1SCC(=O)NC1CCCCC1 | inactive: -0.345% | 
Cc1cccc(/C=N/NC(=O)c2cc(-c3cccnc3)nc3c2c(C)nn3-c2ccccc2)c1 |  | inconclusive [inhibitor, single point]
CCc1ccc(C2c3[nH]c4ccccc4c3CCN2C(=O)CNC(N)=O)cc1 (configuration not stated) |  | inconclusive [inhibitor, single point]
N#Cc1c2n(c3c(=O)n(Cc4ccccc4Cl)cnc13)CCCC2 | inactive: 28.6% | 
Cc1cccc2nc(CSc3nnc(N)s3)cn12 | inactive: 72.7% | 
O=S1(=O)C=C(Sc2nnc(-c3ccccc3)o2)c2ccccc21 |  | active: 3.7 µM
COc1cc([C@H]2[C@@H]3CCCC[C@]3(O)CCN2Cc2ccccc2F)ccc1O |  | inconclusive [inhibitor, partial curve]
Cc1onc(C(=O)NN)c1C(=O)N1CCN(C(c2ccccc2)c2ccccc2)CC1 |  | active: 5.86 µM
CC(C)CCNc1nc(N)c([N+](=O)[O-])c(NCC2CCCO2)n1 (configuration not stated) |  | inconclusive [inhibitor, partial curve]
CCCCc1cc(=O)oc2cc(OCC(=O)N(CC)CC)ccc12 |  | inconclusive [inhibitor, single point]
O=C(NCC1CCCO1)/C(=C\c1cccc([N+](=O)[O-])c1)NC(=O)c1ccccc1 (configuration not stated) | inactive: 30.8% | 
Clc1cccc(Cl)c1OCCOCCNCc1ccccc1 | inactive: 17.4% | 
CC(=O)c1ccc2c3c(cccc13)C(=O)N(CCc1ccccc1)C2=O | inactive: 35.5% | 
O=C(c1ccc([N+](=O)[O-])cc1)N1CCN(c2ncc(Br)cn2)CC1 | inactive: 11.5% | 
CN1CCN(C(CNS(=O)(=O)c2cccs2)c2cccnc2)CC1 (configuration not stated) | inactive: 22.3% | 
Cc1ccc(CN2CCN(Cc3c(C)nn(C(C)C)c3C)CC2CCO)o1 (configuration not stated) | inactive: 0.827% | 
Cn1cc(CNC(=O)C23CC4CC(CC(C4)C2)C3)cn1 |  | inconclusive [inhibitor, single point]
O=C(Cc1ccc(Cl)c(Cl)c1)N1CCOCC1 |  | inconclusive [inhibitor, full curve, poor fit]
CN(C(=O)CCc1nc(-c2ccccc2F)no1)c1ccccc1 |  | inconclusive [inhibitor, partial curve, poor fit]
Cc1ccc(OCC(=O)N(Cc2ccc(N(C)C)cc2)C2CCS(=O)(=O)C2)cc1C (configuration not stated) |  | inconclusive [inhibitor, partial curve]
O=S(=O)(c1ccc2c(c1)OCCO2)N1CCN(c2ncnc3sccc23)CC1 |  | inconclusive [inhibitor, single point]
Cc1ccc(NC(=O)C(C)Sc2nnc(C)n2C)cc1 (configuration not stated) | inactive: 18.7% | 
COc1ccccc1-c1cc(C(F)(F)F)nc(N2CCCC2)n1 | inactive: 9.59% | 
COc1ccc(C(=O)NNC(=O)CSc2nnc(COc3ccccc3)n2C)cc1 | inactive: -26% | 

SMILES | activity change, negative = inhibition | Potency
COc1ccc(NC(=O)c2ccc3ccccc3n2)cc1S(=O)(=O)Nc1ccccc1Cl |  | inconclusive [inhibitor, single point]
COc1cc2c(cc1OC)C(C)N(C(=O)c1sccc1C)CC2 (configuration not stated) | inactive: -3.49% | 
O=C(NCCNCc1ccccn1)c1ccco1 | inactive: -0.885% | 
COc1ccc(CN(CC2CCC(C(=O)O)CC2)C(=S)Nc2cc(C)cc(C)c2)cc1 (configuration not stated) |  | inconclusive [inhibitor, partial curve]
COc1cccc(NC(=O)c2cc3ccccc3oc2=O)c1 | inactive: 201% | 
COc1cc(C(=O)/C=C/c2cccnc2)c([N+](=O)[O-])cc1OC |  | active: 2.94 µM
O=C(COc1ccccc1[N+](=O)[O-])N1CCN(S(=O)(=O)c2ccccc2)CC1 | inactive: 0% | 
CN(CC(=O)Nc1ccccc1Br)C(=O)COc1cccc2c1OC(C)(C)C2 | inactive: -18.2% | 
CCOC(=O)C1(Cc2ccccc2)CCN(Cc2ccc3c(c2)OCCO3)CC1 |  | inconclusive [inhibitor, single point]
Cc1ccccc1C(=O)OC1OC(=O)C(Cl)=C1Nc1ccc(C(=O)O)cc1 (configuration not stated) |  | inconclusive [inhibitor, single point]
O=C(NC1CCN(Cc2ccccc2)CC1)c1ccc(Oc2cc(Cl)cc(Cl)c2)o1 |  | inconclusive [inhibitor, single point]
Cc1ccc(S(=O)(=O)NCCOc2nc(N(C)C)nc(N3CCOCC3)n2)cc1 |  | inconclusive [inhibitor, partial curve, poor fit]
COC(=O)c1c(N2C(=O)[C@H]3[C@@H](C2=O)[C@]2(C(=O)Nc4c(C)cc(C)cc42)N2CCC[C@@H]32)sc(C)c1C |  | inconclusive [inhibitor, single point]
Cc1ccc2cccc(NS(=O)(=O)c3ccccc3)c2n1 |  | inconclusive [inhibitor, partial curve, poor fit]
CC1(C)CC(=O)c2cc(C(=O)NCc3ccco3)c(=O)n(-c3ccccc3)c2C1 |  | inconclusive [inhibitor, partial curve, poor fit]
O=C(Nc1ccon1)C1CCN(S(=O)(=O)c2cccs2)CC1 |  | inconclusive [inhibitor, single point]
CCOc1ccccc1CN1CCC(n2nccc2NC(=O)CCCc2ccccc2)CC1 |  | inconclusive [inhibitor, partial curve, poor fit]
COc1ccc(-c2cc(C(F)(F)F)n3nc(C(=O)N(C)Cc4ccccc4)cc3n2)cc1OC |  | active: 6.57 µM
O=C(OC1CCOC1=O)c1ccc(NS(=O)(=O)c2cccs2)cc1 (configuration not stated) | inactive: 170% | 
O=C(CSc1nncc(=O)[nH]1)NC1CCCCC1 | inactive: 11% | 
O=C(NC1CC2CCCC(C1)N2C(=S)Nc1ccccc1)C1CC1 (configuration not stated) | inactive: 20.7% | 
CCCn1c(SCC(=O)NCc2ccco2)nnc1-c1ccncc1 | inactive: 29.4% | 
COC(=O)C1=C(C(=O)OC)SC2(S1)C(C(=O)OC)=C(C(=O)OC)SC1=C2c2cc(C)cc(C)c2NC1(C)C |  | active: 5.86 µM
CCOC(=O)CSc1nnc(NC(=O)c2cccc(S(=O)(=O)N3CCCC3)c2)s1 |  | inconclusive [inhibitor, single point]

SMILES | activity change, negative = inhibition | Potency
c1ccc(-c2cc(-c3ccncc3)nc3ccc4ccccc4c23)cc1 |  | inconclusive [inhibitor, partial curve]
CCOCCn1c(CN2CCCCC2C)nc2c1c(=O)n(C)c(=O)n2C (configuration not stated) |  | inconclusive [inhibitor, single point]
Cc1[nH]n2c(=O)cc(C(C)(C)C)nc2c1-c1ccccc1 |  | inconclusive [inhibitor, single point]
CCN(C)C(=O)Oc1cccc([C@H](C)N(C)C)c1 | inactive: -2.57% | 
COCCNc1c2c(nc3c(-c4ccccc4)c(C)nn13)CCC2 |  | inconclusive [inhibitor, partial curve, poor fit]
CCc1nn2c(=O)cc(COC(=O)c3cc(Cl)c(OC)c(OC)c3)nc2s1 |  | active: 11.7 µM
CCOc1ccc(-n2c(=S)sc3c(=O)[nH]c(SCC(=O)C(C)(C)C)nc32)cc1 |  | inconclusive [inhibitor, partial curve]
NC12NC(=O)C3(O)C4C5CC(C6C5C3C61)C42 (configuration not stated) |  | inconclusive [inhibitor, full curve, poor fit]
CN(C)S(=O)(=O)c1cccc(NC(=O)C2Cc3ccccc3CN2C(=O)c2ccco2)c1 (configuration not stated) |  | inconclusive [inhibitor, partial curve]
Cc1ccccc1/C=C/c1nc2ccccc2c(=O)n1Cc1ccccc1 |  | inconclusive [inhibitor, single point]
COc1ccccc1C(=O)N(Cc1cccs1)C1CCS(=O)(=O)C1 (configuration not stated) |  | inconclusive [inhibitor, full curve, poor fit]
COc1cccc(C(=O)NC(=S)Nc2ccccc2N2CCCC2)c1 |  | inconclusive [inhibitor, single point]
COc1ccc(Cc2nnc(NC(=O)C3CC(=O)N(CCc4ccc(F)cc4)C3)s2)cc1OC (configuration not stated) |  | inconclusive [inhibitor, partial curve, poor fit]
COC(=O)C1=C(c2ccc(F)cc2F)C[C@@H]2CC[C@H]1N2C(=O)NCc1ccc2c(c1)OCO2 |  | inconclusive [inhibitor, single point]
Nc1ccccc1S(=O)(=O)NCCCCc1ccccc1 | inactive: 33.7% | 
CC(=O)Nc1ccc(NC(=O)C2CCCN(C(=O)c3ccc(Cl)cc3)C2)cc1 (configuration not stated) | inactive: -13.6% | 
O=S(=O)(c1ccc(-c2ccon2)s1)N1CCCC1 | inactive: -7.27% | 
O=C(Cc1ccccc1)Oc1ccc([N+](=O)[O-])cc1 | inactive: -18.6% | 
CC(C)(C)N(Cc1ccccc1)C(=O)CSc1nnc(CNc2ccc(F)cc2)o1 |  | inconclusive [inhibitor, single point]
CCCCc1n[nH]c2c1/C(=N/OCC)CC(C)(C)C2 | inactive: 1.52% | 
O=C1CCCC2=C1C(c1ccc(OS(=O)(=O)c3ccc(Cl)cc3)cc1)C1=C(CCCC1=O)O2 |  | inconclusive [inhibitor, partial curve, poor fit]
O=C(c1ccc(C(F)(F)F)cc1)N1CCC(=O)N(C(COCc2ccc(C(F)(F)F)cc2)Cc2ccccc2)CC1 (configuration not stated) |  | inconclusive [inhibitor, partial curve, poor fit]
NS(=O)(=O)c1ccc(NC(=O)CSc2nc3ccccc3n2-c2ccccc2)cc1 |  | inconclusive [inhibitor, partial curve]
OC(COc1c(F)cc(Br)cc1F)CN1CCOCC1 (configuration not stated) | inactive: 24% | 
